Test results taken from paper PMC4336329 (PLoS ONE, 2015).
Screen size: about 310,000 compounds; about 14,000 (4.5%) showed an effect of 50% or more. Effects have a minus sign here. This is one part of the list.

The compounds below were run against human ether-à-go-go-related gene (hERG) potassium channel (human, UniProt Q12809) (assay: primary screen, population patch clamp on CHO cells stably expressing hERG).
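Note: peak tail current of the secondary pulse compared with the same well before compound.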

human ether-à-go-go-related gene (hERG) potassium channel, sequence (Q12809 whole entry, looked up): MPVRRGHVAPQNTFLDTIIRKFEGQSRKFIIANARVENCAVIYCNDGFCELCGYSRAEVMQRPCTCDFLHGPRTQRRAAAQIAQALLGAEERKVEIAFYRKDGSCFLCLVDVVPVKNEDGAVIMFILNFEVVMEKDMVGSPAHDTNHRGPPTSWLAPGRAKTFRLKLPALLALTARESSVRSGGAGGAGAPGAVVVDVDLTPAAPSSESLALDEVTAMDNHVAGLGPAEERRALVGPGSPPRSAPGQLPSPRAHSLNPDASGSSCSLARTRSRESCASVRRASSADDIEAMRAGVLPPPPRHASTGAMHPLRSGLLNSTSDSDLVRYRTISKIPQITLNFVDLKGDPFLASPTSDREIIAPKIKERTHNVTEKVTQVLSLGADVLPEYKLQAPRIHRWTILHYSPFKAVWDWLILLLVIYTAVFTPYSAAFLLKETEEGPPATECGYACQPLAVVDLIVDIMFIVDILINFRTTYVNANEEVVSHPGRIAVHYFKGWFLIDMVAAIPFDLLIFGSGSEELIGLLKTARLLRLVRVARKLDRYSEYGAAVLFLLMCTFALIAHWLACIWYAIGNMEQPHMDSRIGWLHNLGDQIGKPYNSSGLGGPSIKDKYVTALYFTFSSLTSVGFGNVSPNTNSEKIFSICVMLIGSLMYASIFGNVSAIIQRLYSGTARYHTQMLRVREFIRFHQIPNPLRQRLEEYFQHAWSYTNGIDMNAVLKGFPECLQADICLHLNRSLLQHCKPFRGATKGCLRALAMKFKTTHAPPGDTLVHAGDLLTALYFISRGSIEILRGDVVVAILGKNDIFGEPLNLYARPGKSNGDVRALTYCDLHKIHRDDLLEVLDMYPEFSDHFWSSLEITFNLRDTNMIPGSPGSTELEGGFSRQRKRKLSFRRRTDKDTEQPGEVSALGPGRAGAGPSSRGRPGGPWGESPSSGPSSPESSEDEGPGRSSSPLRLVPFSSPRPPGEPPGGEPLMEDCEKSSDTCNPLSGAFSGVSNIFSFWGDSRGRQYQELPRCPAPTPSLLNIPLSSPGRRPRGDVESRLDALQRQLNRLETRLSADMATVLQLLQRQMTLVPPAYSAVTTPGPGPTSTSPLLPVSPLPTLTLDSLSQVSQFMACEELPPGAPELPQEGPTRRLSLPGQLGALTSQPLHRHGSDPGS

Row | Compound | hERG current change (%, negative = inhibition) at 10uM [%]
1 | Cc1onc(-c2ccccc2)c1C(=O)NC(=S)NNC(=O)c1ccc(O)cc1O | 18.1
2 | COc1ccc2c(c1)c1nc3ccccc3nc1n2CC(=O)OC(C)C | 23.5
3 | Cc1ccc(Oc2ccc3c(c2)C(=O)N(c2ccc(S(=O)(=O)Nc4nccs4)cc2)C3=O)cc1 | -4.83
4 | C#CCOCCOCCOCCNc1nc(N2CCN(C(=O)Cn3cc(CCCC[NH3+])nn3)CC2)nc(N2CCN(C(=O)Cn3cc(CCC[NH+]=C(N)N)nn3)CC2)n1.[Cl-] | 14.8
5 | Cc1ccc(-c2cc3nn(-c4ccccc4)c(N)c3c(=O)o2)cc1 | 2.67
6 | O=C(CSc1nc2ccccc2n1S(=O)(=O)c1ccccc1)N1CCCCC1 | -0.857
7 | Cc1ccc(/C=C2/SC(=S)N(CC(=O)Nc3ncc(Cc4ccc(C)cc4)s3)C2=O)cc1 | -4.84
8 | CCOC(=O)c1ccccc1NC(=O)CN(c1ccccc1)S(=O)(=O)N(C)C | -19.9
9 | CCN(CC)S(=O)(=O)c1cccc(-c2n[nH]c(=S)n2/N=C/c2ccc(C(=O)OC)cc2)c1 | -34
10 | CCOC(=O)c1ccc(Oc2cc(C)nc(Cl)n2)cc1 | -17
11 | CN(C)C(=O)C1Cc2ccccc2CN1S(=O)(=O)c1cccs1 (centres unmarked) | -13.1
12 | COc1ccc(Br)cc1C(=O)NC(=S)Nc1ccc2[nH]c(=O)[nH]c2c1 | 15.8
13 | CS(=O)(=O)N1CCC(C(=O)NCCc2ccccc2)CC1 | -3.47
14 | CCCC(c1nnnn1CS(=O)(=O)c1ccc(C)cc1)N1CCN(C2CCCC2)CC1.Cl (centres unmarked) | -37.5
15 | CCOc1ccc(-n2c(=O)c3c4c(sc3n(CC(=O)NCCCOC)c2=O)CCCCC4)cc1 | -1.22
16 | c1ccc2sc(C3CCNCC3)nc2c1 | -2.73
17 | O=P(Cc1nnco1)(c1ccccc1)c1ccccc1 | 5.87
18 | O=C(COc1ccc(-c2nnco2)cc1)Nc1c(F)cccc1F | 0.851
19 | OCCn1c(Cl)nc2ccccc21 | 10.2

Row | Compound | hERG current change (%, negative = inhibition) at 10uM [%]
20 | CN(CC(=O)Nc1ccc(F)cc1)C(=O)COc1ncnc2ccccc12 | -19.3
21 | COC(=O)C[C@H]1c2cc(C(F)(F)F)ccc2S(=O)(=O)N1C1CCCC1 | -25.9
22 | Cc1c(C#N)c2ccccc2n1CCOc1ccccc1F | 2.19
23 | c1cc2c(cc1CCNC1C3CC4CC(C3)CC1C4)OCO2 (centres unmarked) | -2.3
24 | O=C(O)CCc1nc(-c2ccccc2)c(-c2ccccc2)o1 | -7.49
25 | CSc1ccc(CCNC(=O)Cn2ncc3c([nH]c4ccccc43)c2=O)cc1 | 23.5
26 | COc1ccc(CCNC(=O)C2CCCN2S(=O)(=O)c2ccc(F)cc2)cc1OC (centres unmarked) | 2.54
27 | CCOC(=O)CNC(=O)c1ccc(Cl)s1 | 17.9
28 | CC(=O)c1cc2ccccc2oc1=O | 2.96
29 | O=C(CCCNC(=O)c1ccc(Cl)cc1)Nc1ncccc1O | 2.65
30 | COc1ccc(OCCc2nnc(N)s2)cc1 | -7.08
31 | CC(=O)c1ccc(N2CCN(C(=O)c3cc4c(C)nc5ccccc5c4o3)CC2)cc1 | -9.16
32 | Cc1cccc(N2CCN(S(C)(=O)=O)CC2)c1C | 13.8
33 | Cc1cccc(N(CC(=O)NCCSc2ccccn2)S(=O)(=O)c2ccccc2)c1 | -18.1
34 | CCN(C(=O)c1coc(=O)c2ccccc12)c1cc(OC)ccc1OC | -0.0646
35 | Cc1n[nH]c(=S)n1/N=C/c1ccc(OCc2ccc(Cl)cc2)cc1 | 3.46
36 | CN(c1ccc(C(=O)Nc2cccnc2)cc1)S(=O)(=O)c1ccc(Cl)cc1 | 11.5
37 | COc1ccc(S(=O)(=O)N/N=C(/C)c2ccco2)cc1 | -6.76
38 | O=C(O)C1C2C=CC(C2)C1C(=O)NCc1ccoc1 (centres unmarked) | 13.8

Row | Compound | hERG current change (%, negative = inhibition) at 10uM [%]
39 | CCOC(=O)c1csc(NC(=O)c2cccs2)n1 | -13.1
40 | O=C(NCCCO)C(=O)NCC1OCCCN1S(=O)(=O)c1cccs1 (centres unmarked) | -10.6
41 | COc1ccccc1N1CCN(/N=C(\C)c2ccccc2O)CC1 | -1.09
42 | COc1ccccc1Nc1nc(-c2ccc3c(c2)NC(=O)CO3)cs1 | 11.1
43 | CCOC(=O)c1cccc(NC(=O)N2CCOCC2)c1 | -49.7
44 | O=C(NCCCn1ccnc1)C(=O)NCC(c1cccnc1)N1CCN(c2ccccc2)CC1 (centres unmarked) | 23.3
45 | CN(C)c1cc[n+](CC(=O)c2ccc(OC(F)F)cc2)cc1.[Br-] | -21.5
46 | CCOC(=O)C1=C(CC)Nc2ccccc2N/C1=N\S(=O)(=O)c1ccc2ccccc2c1 | -0.916
47 | O=C(CN1CCc2ccccc21)NCc1ccccc1Cl | -18.5
48 | CC(C)(C)NC(=O)C1Cc2ccccc2CN1C(=O)Nc1ccccc1Cl (centres unmarked) | 0.111
49 | O=C1CCCN2N=C(SCC(=O)Nc3ccc(Cl)cc3)SC2=N1 | -11.5
50 | CC(C)[C@H](NC(=O)NC1CCCc2ccccc21)C(=O)O (some centres unmarked) | -68.2
51 | C/C(N)=C(/C#N)C(=O)COC(=O)C1CSC2(c3ccc(F)cc3)CCC(=O)N12 (centres unmarked) | 10.2
52 | CN1CCN(C(=O)c2cnn3c2NC(c2ccccc2)CC3C(F)(F)F)CC1 (centres unmarked) | 17.1
53 | Cc1ccc(S(=O)(=O)NC(=O)NCc2ccccn2)cc1 | -0.168
54 | Cc1ccc(NC(=O)CN2c3cccc4cccc(c34)S2(=O)=O)cc1S(=O)(=O)N1CCOCC1 | 0.358
55 | CC(OC(=O)CN1C(=O)NC2(CCCCC2C)C1=O)c1ccccc1 (centres unmarked) | -42.4
56 | Cc1ccccc1NC(=O)Cc1nc(CSc2nnc(C3CCCCC3)n2N)cs1 | -12.2
